Assay results from publication PMC6919601, “Identification of Plasmodium dipeptidyl aminopeptidase allosteric inhibitors by high throughput screening” (PLoS ONE, 2019).
Hit rate of the full screen: of about 110,000 compounds, about 230 (0.21%) showed an effect of 50% or more. Some of the results follow.

Target: DPAP1 (Plasmodium falciparum, UniProt Q8IIJ9)
Test: primary screen, percent inhibition; read by cleavage of a fluorogenic dipeptide substrate; higher = more effect of the substance
Set-up: species or system P. falciparum D10 trophozoite lysates; single well
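Further: 30 min substrate incubation versus DMSO and 10 µM JCP410 controls.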

Chain of DPAP1 (Q8IIJ9 whole entry, looked up): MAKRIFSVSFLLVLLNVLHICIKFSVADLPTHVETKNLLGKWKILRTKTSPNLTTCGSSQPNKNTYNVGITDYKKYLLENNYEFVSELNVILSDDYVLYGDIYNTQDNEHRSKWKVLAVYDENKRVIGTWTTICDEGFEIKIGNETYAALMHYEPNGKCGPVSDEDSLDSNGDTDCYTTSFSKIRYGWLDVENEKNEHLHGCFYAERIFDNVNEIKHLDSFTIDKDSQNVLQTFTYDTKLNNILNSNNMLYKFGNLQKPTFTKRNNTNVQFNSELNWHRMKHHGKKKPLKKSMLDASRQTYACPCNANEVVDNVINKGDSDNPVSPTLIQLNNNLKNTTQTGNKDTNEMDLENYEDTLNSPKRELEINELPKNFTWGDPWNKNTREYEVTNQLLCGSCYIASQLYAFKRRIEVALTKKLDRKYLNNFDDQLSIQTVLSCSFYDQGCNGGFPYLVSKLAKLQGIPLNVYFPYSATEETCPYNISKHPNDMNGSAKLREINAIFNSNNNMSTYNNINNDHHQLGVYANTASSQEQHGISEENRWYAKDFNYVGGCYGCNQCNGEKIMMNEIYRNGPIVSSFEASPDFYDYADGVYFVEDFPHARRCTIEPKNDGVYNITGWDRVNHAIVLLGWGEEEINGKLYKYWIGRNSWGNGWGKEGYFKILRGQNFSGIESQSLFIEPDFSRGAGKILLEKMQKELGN

Row | SMILES | % Inhibition @ 10 uM
1 | CCOC(=O)CNC(=O)NCc1ccccc1 | -4.35%
2 | Cc1ccccc1N1C(=O)C(=Cc2ccc3c(c2)OCO3)C(=O)N(c2ccccc2C)C1=S | 15.1%
3 | CC(=O)NS(=O)(=O)c1ccc(NC(=O)c2ccncc2)cc1 | 2.03%
4 | CC(C)NS(=O)(=O)c1ccc(OCC(=O)NCc2cccnc2)cc1 | -2.9%
5 | COCCNC(=O)c1cc2nc(-c3ccco3)cc(C(F)(F)Cl)n2n1 | -3.77%
6 | CC1CCN(c2ccc3nnc(CCC(=O)O)n3n2)CC1 | 4.01%
7 | COc1ccc(N(CC(=O)Nc2ccc(F)cc2)S(C)(=O)=O)cc1 | -1.95%
8 | Cc1ccc(C)c(S(=O)(=O)NCc2ccc(C(=O)Nc3cccnc3)cc2)c1 | -5.56%
9 | CCOC(=O)c1c(NC(=O)c2cc(-c3ccco3)on2)sc2c1CCCC2 | 1.82%
10 | c1ccc(CNc2ccc3c[nH]nc3c2)cc1 | 1.29%
11 | O=C(O)c1ccc(Nc2ccc3ccccc3n2)cc1 | 3.44%
12 | Oc1ccc(Br)cc1C1NCCc2c1[nH]c1ccccc21 (stereo not shown) | -3.92%
13 | COC1CCCCC1NCCc1ccc(F)cc1 (stereo not shown) | 0.177%
14 | CCOc1ccc(CCNC(=O)C2CCN(S(C)(=O)=O)CC2)cc1OCC | -1.56%
15 | C=CCOc1cccc(CNC(C)(C)CO)c1 | 6.98%
16 | COc1cccc(C(=O)Nc2sc(C)c(C)c2C#N)c1 | 0.343%
17 | CC1(c2ccc(O)cc2)NC(=O)NC1=O (stereo not shown) | -0.424%
18 | COCCNC(=O)CCc1nc(-c2ccc(Cl)cc2)no1 | -3.12%
19 | COc1ccc(OC)c(C2C(C#N)=C(N)OC3=C2C(=O)CC(c2ccccc2)C3)c1 (stereo not shown) | 5.93%
20 | Cc1cc(/C=C2\SC(=O)NC2=O)c(C)n1-c1ccc(N(C)C)cc1 | 0.392%
21 | CC(C)C[C@H](NC(=O)C1CCN(C(=O)CSCCCC(P(=O)(O)O)P(=O)(O)O)CC1)C(=O)N[C@@H](CCc1ccccc1)C(=O)COc1ccccc1 | 3.1%
22 | Cc1ccc(-c2csc(/C(C#N)=C\c3cccc(F)c3)n2)cc1 | 0.912%
23 | O=C(O)c1cccc(NC(=O)c2ccc([N+](=O)[O-])cc2C(=O)O)c1 | -8.11%
24 | COC(=O)c1nn2c(C(F)(F)F)cc(-c3cccs3)nc2c1Cl | -2.2%
25 | CC1(C)CC(=O)C2=C(C1)C(c1ccc(Cl)cc1Cl)c1c(O)nc(O)nc1N2 (stereo not shown) | 7.84%

Row | SMILES | % Inhibition @ 10 uM
26 | O=C(CN(c1ccc2c(c1)OCCO2)S(=O)(=O)c1ccccc1)N1CCCCCC1 | -4.49%
27 | O=C(Nc1ccc(O)cc1)c1nn2c(c1Cl)NC(c1cccs1)CC2C(F)(F)F (stereo not shown) | -2.87%
28 | N#CC1=C(N)Oc2[nH]nc(-c3ccccc3Cl)c2C1c1ccccc1 (stereo not shown) | 2.68%
29 | O=S(=O)(c1ccc2c(c1)OCCO2)N1CCOCC1 | 11.3%
30 | CC1=C(C#N)C(=O)N(CCCO)C(=O)/C1=C\c1ccc(-c2cccc(C(=O)O)c2)o1 | 5.37%
31 | CCCC1=C(C(=O)OCC)C(c2ccccc2)C(C#N)=C(N)O1 (stereo not shown) | 1.41%
32 | COC(=O)Nc1ccccc1C(=O)N1CCC(O)(c2ccc(Cl)cc2)CC1 | 2.48%
33 | COc1cc(-c2nnn(CC(=O)O)n2)cc(OC)c1OC | -3.53%
34 | Cc1cccc(C)c1NC(=O)C(NC(=O)CN1C(=O)c2ccccc2C1=O)c1ccc(O)cc1 (stereo not shown) | -1.45%
35 | Cc1c(O)nc(O)nc1NCc1ccccc1 | 2.22%
36 | Cc1ccc(OCC(=O)Nc2nnc(S(=O)(=O)N3CCC(C)CC3)s2)cc1 | -1.72%
37 | CCOC(=O)N1CCN(C(=O)CSCc2nc(-c3ccccc3C)oc2C)CC1 | -1.05%
38 | Cc1cc(NC(=O)CN(C)Cc2ccccc2)nc2c1c(=O)oc1ccccc12 | 1.22%
39 | COc1ccc(C2CC(=O)N=C(NC(C)=O)N2)cc1 (stereo not shown) | 4.48%
40 | c1ccc(CSc2nc[nH]n2)nc1 | 0.503%
41 | CC1=CC2=NC(=O)/C(=C\c3ccc(OCc4ccccc4C)cc3)C(=N)N2O1 | 3.63%
42 | CC1CC2(NC(=O)NC2=O)C(C)CN1C (stereo not shown) | -0.744%
43 | N#Cc1cc2c(nc1SCC(=O)Nc1ccc(F)cc1)CCCCC2 | -0.68%
44 | COc1ccc(CNS(=O)(=O)c2cc3nc(O)c(O)nc3cc2C)cc1 | 2.88%
45 | CCCCN1CCc2c([nH]c3ccc(C)cc23)C1=O | -7.42%
46 | Cc1nc(N)sc1-c1csc(Nc2ccc(Cl)cn2)n1 | 16.7%
47 | CCOC(=O)c1c(CN2CCN(c3ccccc3)CC2)n(C)c2cc(Br)c(O)cc12 | -2.15%
48 | COc1ccc2c(c1)C1C=CCC1C(c1ccc(Br)cc1)N2 (stereo not shown) | -2.42%
49 | CCOc1cc(C2CC(=O)Nc3c2c(=O)nc(SC)n3C)ccc1OCC(N)=O (stereo not shown) | 3.84%
50 | Cc1ccc(NC(=O)C2CC=CCC2C(=O)O)c(Br)c1 (stereo not shown) | 3.24%

Row | SMILES | % Inhibition @ 10 uM
51 | O=S(=O)(NC1CCCCC1N1CCN(Cc2ccc3c(c2)OCO3)CC1)c1ccc(Cl)cc1 (stereo not shown) | -4.19%
52 | O=C(Nc1c(C(=O)c2ccc3c(c2)OCO3)oc2ccccc12)c1ccco1 | 4.33%
53 | CCOC(=O)c1sc(-c2ccccc2)nc1-c1ccc([N+](=O)[O-])cc1 | 2.86%
54 | COc1ccc(CC(=O)NCCc2ccccc2)cc1 | -6.27%
55 | CCOC(=O)c1c(NC(=S)NC(=O)/C=C/c2ccc(F)cc2)sc2c1CCCC2 | 3.47%
56 | COc1ccccc1C(=O)Nc1ccc2nc(SCC(=O)N3CCOCC3)sc2c1 | 3.99%
57 | COc1ccc(OC)c(CN2CCN(C(=O)c3cccc(Cl)c3)CC2)c1 | -3.49%
58 | c1ccc(-c2noc(-c3ccccc3)c3cccc2-3)cc1 | -2.77%
59 | CS(=O)(=O)Nc1cccc(-c2cn3cccnc3n2)c1 | 5.07%
60 | O=C(C1=C(O)C(=O)N(CCOCCO)C1c1cccc(F)c1)c1ccc(Br)cc1 (stereo not shown) | -1.88%
61 | OC1COC(Oc2ccccc2)C(O)C1O (stereo not shown) | 4.54%
62 | Oc1nnnc2sc(-c3ccccc3)cc12 | 7.04%
63 | Cc1ccc(CNC(=O)Cn2ncn3c(c(-n4cccc4)c4c5c(sc43)CCCC5)c2=O)cc1 | -3.34%
64 | CCN(CC)CCCNCc1cccc(OC)c1 | -3.12%
65 | CCOC(=O)c1c(C)[nH]c(C)c1S(=O)(=O)N(C)CC(=O)Nc1ccc(C)cn1 | -4.17%
66 | CN(C)c1nc(NCCOC23CC4CC(CC(C4)C2)C3)nc(OCC(F)(F)F)n1 | -1.82%
67 | CCOc1ccc(NC(=O)CCC(=O)c2ccc(C)cc2)cc1 | -5.57%
68 | COC(=O)c1c(C)oc2ccc(O)c(CN3CCCCC3C)c12 (stereo not shown) | -4.82%
69 | O=c1c(-c2ccccc2)c(O)nc2ccccn12 | -0.999%
70 | Cc1ccc(-n2ncc(C(=O)N3CCCC3)c2C2CCN(C(=O)OC(C)(C)C)CC2)cc1C | 1.23%
71 | COc1ccc(CC(=O)Nc2cccc(C(=O)Nc3ccccc3C(=O)O)c2)cc1OC | 2.44%
72 | N#Cc1ccccc1CSc1nc2ncccc2o1 | 1.97%
73 | CC(C)C[C@H](NC(=O)c1ccc(-c2ccccc2Cl)s1)C(=O)NCC#N | -1.82%
74 | COc1cc(/C=C2/SC(=O)N(CC(=O)Nc3ccccc3)C2=O)ccc1O | 11.1%
75 | CCOC(=O)c1[nH]c2ccccc2c1CC#N | -3%

Row | SMILES | % Inhibition @ 10 uM
76 | C=CCOc1ccc(C(=O)Nc2nonc2-c2ccc(OC)c(OC)c2)cc1 | 5.43%
77 | CNC(=O)COc1ccccc1C(=O)Nc1ccc(Oc2ccc(Cl)cc2)cc1 | -0.545%
78 | Cc1oc2ccc(O)c(CN(C)C)c2c1C(=O)OCCc1ccccc1 | 0.486%
79 | CC(C)=CCCC1(C)NC(=O)NC1=O (stereo not shown) | 1.05%
80 | COc1cccc(CN2CCN(Cc3cc(OC)c(OC)c(OC)c3)CC2)c1 | -2.6%
81 | O=C(NCC1CCCO1)C1c2ccccc2C(=O)N1Cc1ccc2c(c1)OCO2 (stereo not shown) | 2.93%
82 | Nc1nc(O)c2nc(N3CCCCC3)n([C@@H]3O[C@H](CO)[C@@H](O)[C@H]3O)c2n1 | 0.221%
83 | COc1cc(C2(c3ccc(O)c(OC)c3)C(=O)N(C)c3ccc(Br)cc32)ccc1O | -1.49%
84 | Cc1ccc(-c2cc(C(=O)Nc3ccc4c(c3)OCCO4)c3ccccc3n2)o1 | -7.08%
85 | Cc1ccc(C)c(OCC(=O)NC2CC(C)(C)NC(C)(C)C2)c1 | -4.93%
86 | O=C(NCc1cccs1)C1CCN(S(=O)(=O)c2cccc3cccnc23)CC1 | 0.208%
87 | CC(C)OP(C)(=O)CN1CCN(CP(C)(=O)OC(C)C)CC1 (stereo not shown) | -7.15%
88 | N#CC1=C(N)Oc2[nH]nc(-c3cccs3)c2C1c1ccc(Cl)c(Cl)c1 (stereo not shown) | -4.12%
89 | O=C(O)Cc1ccc(NC(=O)c2ccccc2[N+](=O)[O-])cc1 | 4.54%
90 | O=c1cc(CSc2nc3ncccc3o2)nc2ccccn12 | -2.41%
91 | CCC(O)(c1ccccc1)C(CN1CCOCC1)c1ccccc1 (stereo not shown) | 1.12%
92 | Cc1nn(-c2ccccc2)c(O)c1/C=N/c1ccc(S(=O)(=O)N2CCOCC2)cc1 | 16.1%
93 | COc1cc(C(=O)Nc2ccc3c(c2)OCCO3)ccc1OC(F)F | -1.89%
94 | CCc1nn(Cc2ccccc2F)c(=O)c2cc3cc(C)ccc3n12 | 3%
95 | O=C(NCCCN1CCOCC1)c1nnc(-c2ccc3c(c2)OCO3)o1 | -2.58%
96 | CC(=O)OC12CC3CC(C1)C(=O)C(C3)C2 | 0.526%
97 | COc1ccc2cc(S(=O)(=O)c3ccc(C(C)(C)C)cc3)c(=O)oc2c1 | 0.44%
98 | COCCNC(=O)c1onc(C)c1Cl | -0.0115%
99 | COc1cccc(NC2=C(Cl)C(=O)N(c3ccccc3C)C2=O)c1 | 2.08%
100 | Cc1cc(C(F)(F)F)nn1CC(=O)NCc1ccccc1 | -6.39%
